Screen size: about 48,000 compounds; about 450 (0.94%) were called active. Roughly 19% stayed inconclusive and do not appear here. Calls follow the shape of the dose curve; as a rule, active = well fitted inhibition curve with a large enough effect; inconclusive = small, poorly fitted or top-dose-only effect; inactive = no such curve, though single readings can be large or run the other way. Some of the results follow.
Assay: Primary qHTS for Identification of Small Molecule Inhibitors of Huntingtin Promoter Activity; also: nearly all actives have a fitted effect of over 50% in size
Details: HEK293 HTT promoter firefly luciferase reporter (activity 0% = vehicle and -100% = no light), 24 h; series mostly up to 57.5 µM; activity change, negative = inhibition: at the top concentration
Summary of the method: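 Quantitative HTS used concentration series of up to 57.5 uM final on HEK293 luciferase reporter cells, 24 h at 37 degrees C. Readout was Dual-Glo firefly luminescence.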

Activity change, negative = inhibition, inactive:
CCCCN(CC)CCCNC(=O)Cn1ncc2c3ccccc3n(Cc3ccc(F)cc3)c2c1=O -15%
Cn1c(=O)c(=O)n(C)c2cc(S(=O)(=O)N3CCN(c4ccccc4)CC3)ccc21 -11.2%
CC(NC(=O)c1ccc2c(c1)sc1nc(-c3ccccc3)cn12)C12CC3CC(CC(C3)C1)C2 (configuration not stated) -12.6%
COc1ccc(S(=O)(=O)NCc2nc3nc(C)cc(C)n3n2)cc1OC 8.35%
COc1ccc(CNC(=O)CSc2c3c(nc4ccc(Cl)cc24)CCCC3)cc1 -15%
CCc1nn(CC(=O)Nc2ccc(NC(C)=O)cc2)c(=O)c2cc3sccc3n12 1.74%
O=C(Cn1cnc2onc(-c3ccc(Cl)cc3)c2c1=O)Nc1ccc(F)cc1 -12.7%
COCCNC(=O)CN1C(=O)c2cccnc2Oc2ccc(Cl)cc21 4.98%
O=[N+]([O-])c1cc(-c2nc(-c3ccccc3)no2)ccc1N1CCOCC1 -29.3%
CCOc1ccccc1NC(=O)C1=C(C)Nc2ncnn2C1c1ccc(C)o1 (configuration not stated) -12%
CCc1ccccc1NC(=O)Cn1c(SCc2ccc(F)cc2)nc2ccncc21 -1.15%
Cc1cccc(NC(=O)c2oc3ccccc3c2NC(=O)Cc2coc3ccc(C(C)C)cc23)c1 33.4%
CCc1cccc(CC)c1NC(=O)CCS(=O)(=O)c1ccc2c(c1)CCN2C(C)=O -3.29%
O=C(CCCn1c(=O)c2cccn2c2ccccc21)NCc1ccccc1Br -0.448%
COc1cc(C(C)C)c2c(c1)S(=O)(=O)N(COc1cc(=O)n3cccc(OCCN4CCCCC4)c3n1)C2=O -17.3%
CC1CCN(C(=O)C2COc3ccccc3C2)CC1 (configuration not stated) -4.37%
CCCCOc1ccccc1C(=O)N(Cc1cccc(F)c1)C1CCS(=O)(=O)C1 (configuration not stated) -8.39%
CCOc1ccc(CCNC(=O)CSc2nnnn2-c2ccc(C)cc2C)cc1OCC -24.2%
CCOc1ccc(NC(=O)N(C)CCc2c(C)nn(C)c2C)cc1 5.83%
COc1cc(OC)c(NC(=O)C(Cc2ccccc2)NS(=O)(=O)c2cccc3nsnc23)cc1Cl (configuration not stated) -39.9%
CN(C)c1ccc(NC(=O)CSc2nc3ccsc3c(=O)n2CCCCCC(=O)O)cc1 5.46%
CC(C)CCNC(=O)CN1C(=O)c2cccnc2Sc2ccccc21 -6.73%
CC(=O)c1cccc(NC(=O)Cc2noc3ccccc23)c1 11.3%
CCS(=O)(=O)c1ccccc1C(=O)Nc1ccc(-c2nc3ccccc3s2)cc1 -24.8%
COc1ccc(CC(=O)Nc2cc(-c3cn4cccnc4n3)ccc2OC)cc1 -2.38%
CCCCC(=O)NC1(C(F)(F)F)C(=O)Nc2c1c(=O)[nH]c(=O)n2-c1ccc(C)c(C)c1 (configuration not stated) -8.71%
COc1cccc(NC(=O)CSC2=Nc3ccccc3C3=NC(CC(=O)NCc4ccc5c(c4)OCO5)C(=O)N23)c1 (configuration not stated) 11.2%
